Source: PubChem BioAssay AID686979 (National Center for Advancing Translational Sciences (NCATS), 2013)
About 50,000 (12%) of roughly 420,000 compounds were called active. Inconclusive results, whose numbers are uncertain, are shown with a selection of clear calls. Calls follow the shape of the dose curve; as a rule, active = well fitted inhibition curve with a large enough effect; inconclusive = small, poorly fitted or top-dose-only effect; inactive = flat fitted curve, though single readings scatter. Potencies of inconclusive entries are left out as doubtful fits.

Test: qHTS for Inhibitors of human tyrosyl-DNA phosphodiesterase 1 (TDP1): qHTS in cells in presence of CPT; also: nearly all actives have a fitted effect of over 55% in size
Settings: chicken DT40 Tdp1-/-;hTDP1 cells + 20 nM CPT, ATP luminescence, 48 h; series mostly up to 46.2 µM
Procedure, shortened: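 Chicken DT40 Tdp1-/- cells complemented with human TDP1, 400 cells/well, exposed to compounds plus 20 nM camptothecin for at least 48 h at 37 C; viability read as ATP content by CellTiter-Glo luminescence.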
Potency is read from the fitted curve at half-maximal effect; tags tell the direction and shape of the fitted curve.

Row | Compound | Potency
1 | CC(C)N1CCC(N2CCN(Cc3cc4c(cc3Cl)OCO4)CC2CCO)CC1 (configuration not stated) | inactive
2 | CC(C)(C)Nc1ncnc2c1cnn2-c1ccccc1 | inconclusive [inhibitor, single point]
3 | Cc1cccc(NC(=O)c2c(NC(=O)c3cccs3)sc3c2CCC(C)C3)c1 (configuration not stated) | active: 23.1 µM
4 | CCCCNC(=O)C(CC)Sc1nnc(-c2ccc(F)cc2)c(-c2ccc(F)cc2)n1 (configuration not stated) | inconclusive [inhibitor, single point]
5 | Cc1ccc([C@H]2C[C@H](O)[C@@H](n3cc(-c4ccc(F)cc4)nn3)CN2C(=O)c2cccs2)cc1 | inconclusive [inhibitor, single point]
6 | CCOC(=O)CC1C(=O)NCCN1S(=O)(=O)c1ccc(Cl)cc1Cl (configuration not stated) | inactive
7 | O=C(Cn1sc2ccccc2c1=O)NC12CC3CC(CC(C3)C1)C2 | active: 1.46 µM
8 | O=C(Nc1cccc(NC(=S)NC(=O)c2cccs2)c1)c1ccccc1 | inactive
9 | Cc1ccc(CCNC(=O)CN2C(=O)CSc3ccc(S(=O)(=O)N4CCOCC4)cc32)cc1 | inactive
10 | Cc1cc(/C=N/O)c(C)n1-c1ccc(Br)cc1 | inactive
11 | COc1ccc(F)cc1S(=O)(=O)n1cnc2ccccc21 | inactive
12 | Cc1nn(C)cc1C(C)NC(=O)c1cc(COc2ccc(F)c(F)c2)on1 (configuration not stated) | inconclusive [inhibitor, single point]
13 | c1ccc2c(NC3C4CC5CC(C4)CC3C5)nc(N3CCOCC3)nc2c1 (configuration not stated) | active: 10.3 µM
14 | CC(SCC(=O)NC(C)C1CC2CCC1C2)C(=O)O (configuration not stated) | inactive
15 | COCCn1c(C)cc(C2=NNC(=Nc3ccccc3)SC2)c1C | active: 22.4 µM
16 | COCCN(CC(=O)Nc1ccccc1C(F)(F)F)C(=O)/C=C/c1ccc2ccccc2n1 | inactive
17 | O=C(c1ccccc1)c1ccc(N2CCOCC2)c(NC(=O)c2ccco2)c1 | inconclusive [inhibitor, single point]
18 | CC(C)Cn1c(=O)c(C(=O)N/N=C/c2cccc(F)c2)c(O)c2ccccc21 | active: 2.91 µM
19 | COc1cc(C(=O)OCC(=O)NC(C)CCc2ccccc2)cc(OC)c1OC (configuration not stated) | inconclusive [inhibitor, single point]
20 | COc1cc(/C=C2\SC(=Nc3ccccc3)N(CCc3c[nH]c4ccccc34)C2=O)ccc1OC(C)C(=O)O (configuration not stated) | inconclusive [inhibitor, single point]
21 | CCOC(=O)C1=C(C)N=C(/N=C/N(C)C)SC1c1ccccc1 (configuration not stated) | inconclusive [inhibitor, single point]
22 | Cc1ccc(CNC(=O)c2ccc3c(=O)n(CC4CCCO4)c(=S)[nH]c3c2)cc1 (configuration not stated) | inconclusive [inhibitor, single point]
